Results are given in words; binding and its absence hold for the method and conditions named. Binding seen in cells or lysates may run through a third protein. Some results given as binding are weak or reduced against the parent protein; the word gives no strength.

Amino acid sequences for entries named in this document (tags omitted).
UniProt P30935: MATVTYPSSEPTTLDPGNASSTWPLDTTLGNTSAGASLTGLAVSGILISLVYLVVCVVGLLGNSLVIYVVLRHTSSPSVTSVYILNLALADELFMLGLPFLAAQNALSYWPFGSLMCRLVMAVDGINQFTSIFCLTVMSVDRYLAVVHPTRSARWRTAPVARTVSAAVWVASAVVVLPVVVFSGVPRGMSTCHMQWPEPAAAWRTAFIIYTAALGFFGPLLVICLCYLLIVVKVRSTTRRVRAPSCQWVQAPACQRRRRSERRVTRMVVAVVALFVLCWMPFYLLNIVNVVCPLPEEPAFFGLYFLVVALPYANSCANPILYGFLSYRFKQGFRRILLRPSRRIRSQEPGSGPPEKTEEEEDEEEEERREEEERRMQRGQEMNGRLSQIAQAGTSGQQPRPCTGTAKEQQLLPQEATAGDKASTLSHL
UniProt Q76JU9: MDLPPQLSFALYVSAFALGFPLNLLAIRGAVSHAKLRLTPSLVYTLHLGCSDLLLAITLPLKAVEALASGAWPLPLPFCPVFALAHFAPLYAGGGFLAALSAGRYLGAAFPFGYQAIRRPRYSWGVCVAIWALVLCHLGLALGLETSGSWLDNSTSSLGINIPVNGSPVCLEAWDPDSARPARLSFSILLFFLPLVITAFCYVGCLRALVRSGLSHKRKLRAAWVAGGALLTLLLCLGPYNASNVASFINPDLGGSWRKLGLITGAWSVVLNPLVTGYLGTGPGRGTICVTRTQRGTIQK
UniProt P25962: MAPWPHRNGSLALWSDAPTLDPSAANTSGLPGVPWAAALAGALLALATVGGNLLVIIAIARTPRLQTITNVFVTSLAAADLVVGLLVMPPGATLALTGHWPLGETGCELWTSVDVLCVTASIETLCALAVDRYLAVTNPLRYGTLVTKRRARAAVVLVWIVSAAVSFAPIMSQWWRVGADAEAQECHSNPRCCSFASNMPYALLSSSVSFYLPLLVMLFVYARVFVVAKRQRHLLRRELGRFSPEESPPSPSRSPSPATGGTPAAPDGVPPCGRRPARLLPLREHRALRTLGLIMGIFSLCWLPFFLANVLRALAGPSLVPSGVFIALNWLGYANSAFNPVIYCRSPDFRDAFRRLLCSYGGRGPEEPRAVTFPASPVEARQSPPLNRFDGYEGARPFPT
UniProt Q9EQQ3: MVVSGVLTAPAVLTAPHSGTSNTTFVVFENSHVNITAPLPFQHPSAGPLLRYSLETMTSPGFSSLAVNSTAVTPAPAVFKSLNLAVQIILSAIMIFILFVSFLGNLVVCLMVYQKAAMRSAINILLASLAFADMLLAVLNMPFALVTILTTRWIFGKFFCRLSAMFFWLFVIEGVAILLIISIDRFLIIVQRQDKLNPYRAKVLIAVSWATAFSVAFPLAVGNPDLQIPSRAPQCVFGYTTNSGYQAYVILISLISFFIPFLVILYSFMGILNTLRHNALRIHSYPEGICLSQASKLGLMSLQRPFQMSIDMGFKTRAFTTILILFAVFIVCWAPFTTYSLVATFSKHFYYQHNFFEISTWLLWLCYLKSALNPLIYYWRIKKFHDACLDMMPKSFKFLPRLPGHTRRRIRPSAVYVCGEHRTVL
UniProt Q924H0: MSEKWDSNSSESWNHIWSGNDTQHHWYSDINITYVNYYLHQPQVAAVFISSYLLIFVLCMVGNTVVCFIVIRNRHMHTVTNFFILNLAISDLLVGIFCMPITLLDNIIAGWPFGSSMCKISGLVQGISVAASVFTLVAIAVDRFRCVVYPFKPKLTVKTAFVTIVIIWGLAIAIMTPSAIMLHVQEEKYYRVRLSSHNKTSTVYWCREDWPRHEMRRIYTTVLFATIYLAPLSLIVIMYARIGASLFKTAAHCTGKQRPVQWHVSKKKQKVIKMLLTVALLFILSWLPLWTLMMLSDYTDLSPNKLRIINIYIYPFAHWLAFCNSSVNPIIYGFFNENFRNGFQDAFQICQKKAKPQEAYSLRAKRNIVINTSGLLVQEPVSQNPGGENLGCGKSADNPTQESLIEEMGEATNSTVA
UniProt Q04573: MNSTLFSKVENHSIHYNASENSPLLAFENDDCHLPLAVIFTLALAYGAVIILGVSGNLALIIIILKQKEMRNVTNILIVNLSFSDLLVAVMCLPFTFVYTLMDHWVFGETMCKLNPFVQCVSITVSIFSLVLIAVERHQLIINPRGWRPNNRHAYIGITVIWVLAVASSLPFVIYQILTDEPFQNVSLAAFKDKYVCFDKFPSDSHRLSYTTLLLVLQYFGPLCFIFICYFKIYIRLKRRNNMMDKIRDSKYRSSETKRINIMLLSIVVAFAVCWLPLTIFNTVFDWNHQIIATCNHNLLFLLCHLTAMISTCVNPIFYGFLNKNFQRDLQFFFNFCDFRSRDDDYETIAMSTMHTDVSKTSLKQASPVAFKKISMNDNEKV
UniProt Q9EPB7: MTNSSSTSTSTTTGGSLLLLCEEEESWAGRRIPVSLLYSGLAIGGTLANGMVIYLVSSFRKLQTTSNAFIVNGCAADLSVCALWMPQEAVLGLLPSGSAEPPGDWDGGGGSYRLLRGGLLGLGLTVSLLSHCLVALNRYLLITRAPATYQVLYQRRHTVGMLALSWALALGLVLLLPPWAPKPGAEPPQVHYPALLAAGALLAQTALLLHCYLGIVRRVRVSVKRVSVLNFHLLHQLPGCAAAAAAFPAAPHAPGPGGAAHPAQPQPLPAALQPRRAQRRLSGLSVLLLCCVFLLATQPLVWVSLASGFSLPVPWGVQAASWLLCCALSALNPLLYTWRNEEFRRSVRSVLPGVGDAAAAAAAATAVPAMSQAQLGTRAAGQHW
UniProt Q9JKL1: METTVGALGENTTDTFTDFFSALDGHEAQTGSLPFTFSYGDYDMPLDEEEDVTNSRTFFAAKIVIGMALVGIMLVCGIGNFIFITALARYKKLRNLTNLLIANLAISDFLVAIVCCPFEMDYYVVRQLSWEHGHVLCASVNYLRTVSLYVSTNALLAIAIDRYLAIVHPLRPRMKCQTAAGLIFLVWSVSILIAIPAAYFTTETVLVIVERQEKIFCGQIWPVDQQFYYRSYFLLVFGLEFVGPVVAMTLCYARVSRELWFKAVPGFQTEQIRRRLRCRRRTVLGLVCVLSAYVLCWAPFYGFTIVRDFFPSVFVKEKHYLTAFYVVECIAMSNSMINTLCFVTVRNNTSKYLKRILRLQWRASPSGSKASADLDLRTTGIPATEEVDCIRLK
UniProt E9Q468: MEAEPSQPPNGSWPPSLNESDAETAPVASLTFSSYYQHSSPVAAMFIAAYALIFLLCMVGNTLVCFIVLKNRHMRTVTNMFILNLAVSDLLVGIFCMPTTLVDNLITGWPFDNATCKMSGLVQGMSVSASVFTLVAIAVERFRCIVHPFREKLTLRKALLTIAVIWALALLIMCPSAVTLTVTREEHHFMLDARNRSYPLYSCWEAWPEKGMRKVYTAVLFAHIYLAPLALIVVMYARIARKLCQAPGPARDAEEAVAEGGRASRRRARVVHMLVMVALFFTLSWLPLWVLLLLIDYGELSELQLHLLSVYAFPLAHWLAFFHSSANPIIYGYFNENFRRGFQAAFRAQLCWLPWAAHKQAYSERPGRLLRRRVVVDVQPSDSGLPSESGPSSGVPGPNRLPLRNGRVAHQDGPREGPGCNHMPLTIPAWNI
UniProt P70658: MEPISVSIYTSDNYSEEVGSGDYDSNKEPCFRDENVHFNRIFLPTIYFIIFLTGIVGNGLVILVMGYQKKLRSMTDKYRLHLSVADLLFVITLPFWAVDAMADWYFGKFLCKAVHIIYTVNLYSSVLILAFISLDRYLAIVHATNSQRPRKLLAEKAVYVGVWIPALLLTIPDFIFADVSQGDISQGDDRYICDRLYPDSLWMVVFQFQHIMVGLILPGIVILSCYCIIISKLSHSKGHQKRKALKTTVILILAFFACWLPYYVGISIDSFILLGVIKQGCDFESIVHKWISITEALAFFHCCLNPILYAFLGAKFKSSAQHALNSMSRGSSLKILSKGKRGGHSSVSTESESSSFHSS
UniProt P97926: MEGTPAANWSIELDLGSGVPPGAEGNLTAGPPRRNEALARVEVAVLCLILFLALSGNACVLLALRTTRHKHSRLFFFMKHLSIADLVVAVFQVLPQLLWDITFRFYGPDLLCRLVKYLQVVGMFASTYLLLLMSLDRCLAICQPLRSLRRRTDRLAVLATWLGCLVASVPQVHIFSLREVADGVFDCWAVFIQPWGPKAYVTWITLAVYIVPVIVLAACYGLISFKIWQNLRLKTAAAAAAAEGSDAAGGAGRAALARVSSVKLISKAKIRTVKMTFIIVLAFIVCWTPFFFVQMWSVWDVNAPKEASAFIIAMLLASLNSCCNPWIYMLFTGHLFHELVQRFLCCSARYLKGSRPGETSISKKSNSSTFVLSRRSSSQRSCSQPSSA

This passage reports binding results from publication PMC9619224.

Common to all, as to test: co-IP; HEK293T cells transfected with 3xHA-GPCR and 2xFlag-MRAP1 or MRAP2; GPCR immunoprecipitated with rabbit anti-HA, Protein A/G agarose, overnight at 4°C; MRAP detected by mouse anti-Flag blot
For assay [1], the target named is Somatostatin receptor 3 (mouse) (UniProt P30935).
Assay [2] addresses Free fatty acid receptor 1 (mouse) (UniProt Q76JU9).
The target of assay [3] is Adrenergic receptor, beta 3 (mouse) (UniProt P25962).
The target of assay [4] is G protein‐coupled receptor 63 (mouse) (UniProt Q9EQQ3).
Assay [5] has as its target Neuropeptide FF receptor 2 (mouse) (UniProt Q924H0).
Assay [6] deals with Neuropeptide Y receptor Y1 (mouse) (UniProt Q04573).
In assay [7] the target is G protein‐coupled receptor 88 (mouse) (UniProt Q9EPB7).
The target of assay [8] is T1, Gastric inhibitory polypeptide receptor (mouse) (UniProt Q0P543).
T1 sequence: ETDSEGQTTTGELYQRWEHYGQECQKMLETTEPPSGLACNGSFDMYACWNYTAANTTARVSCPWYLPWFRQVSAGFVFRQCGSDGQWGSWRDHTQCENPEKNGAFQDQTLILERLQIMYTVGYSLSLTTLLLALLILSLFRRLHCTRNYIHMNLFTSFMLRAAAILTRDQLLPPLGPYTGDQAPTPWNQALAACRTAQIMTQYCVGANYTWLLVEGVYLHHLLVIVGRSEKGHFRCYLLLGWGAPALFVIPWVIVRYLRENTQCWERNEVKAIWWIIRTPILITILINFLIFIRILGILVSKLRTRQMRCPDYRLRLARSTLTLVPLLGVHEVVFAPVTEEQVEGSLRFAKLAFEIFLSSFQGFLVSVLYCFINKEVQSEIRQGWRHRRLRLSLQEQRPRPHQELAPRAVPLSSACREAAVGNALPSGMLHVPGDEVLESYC

Assay [9] addresses Prokineticin receptor 1 (mouse) (UniProt Q9JKL1).
Assay [10] deals with Neuropeptide FF receptor 1 (mouse) (UniProt E9Q468).
Assay [11] deals with Chemokine (C‐X‐C motif) receptor 4 (mouse) (UniProt P70658).
Assay [12] addresses Oxytocin receptor (mouse) (UniProt P97926).
Assay [13] addresses T2, Adrenergic receptor, alpha 1b (mouse) (UniProt P97717).
T2 sequence: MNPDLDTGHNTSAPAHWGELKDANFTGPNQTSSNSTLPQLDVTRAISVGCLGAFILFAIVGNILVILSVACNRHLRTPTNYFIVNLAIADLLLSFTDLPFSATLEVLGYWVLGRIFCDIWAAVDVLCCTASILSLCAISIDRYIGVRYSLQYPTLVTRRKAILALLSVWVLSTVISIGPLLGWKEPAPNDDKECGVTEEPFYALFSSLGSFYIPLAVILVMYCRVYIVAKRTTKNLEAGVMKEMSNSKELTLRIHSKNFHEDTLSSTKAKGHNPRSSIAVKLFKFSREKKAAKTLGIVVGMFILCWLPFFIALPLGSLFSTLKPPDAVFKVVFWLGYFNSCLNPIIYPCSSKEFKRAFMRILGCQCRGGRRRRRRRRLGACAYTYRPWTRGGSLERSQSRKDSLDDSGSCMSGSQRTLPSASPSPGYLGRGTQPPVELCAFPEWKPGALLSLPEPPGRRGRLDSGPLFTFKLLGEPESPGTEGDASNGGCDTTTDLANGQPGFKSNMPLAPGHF

B1: melanocortin receptor accessory protein MRAP2 (protein, UniProt D3Z1Q2 1-207)
chain: MEMSAQRLASNRTSPQSPSNSDYTWEYEYYEIGPVSFEGLKAHKYSIVIGFWVGLAVFVIFMFFVLTLLTKTGAPHQDNAESSERRFRMNSFVSDFGKPLESDKVFSRQGNEESRSLFHCYINEVEHLDRVKVCHQTTAIDSDVHLQEASRSSGRPEEELARFMKFDIPNFVNTEQSSFGEDDLLISEAPVLLENKPVSQTSRIDLD
On to B1, for which the binding result in [1], in assay [2], in [3], in assay [4], in [5] and in assay [6] was “binds” each time. Further, the binding result in [7] is listed as “binds”; in assay [8], “binds”; in assay [9], “binds”; in [10], “binds”; in [11] it was “binds”; in assay [12], “no binding”. The binding entry in [13] is “binds”.

B2: melanocortin receptor accessory protein MRAP1 (protein, UniProt Q9D159 1-127)
chain: MANGTDASVPLTSYEYYLDYIDLIPVDEKKLKANKHSIVIALWLSLATFVVLLFLILLYMSWSGSPQMRHSPQPQPICSWTHSFNLPLCLRRASLQTTEEPGRRAGTDQWLTQQSPSASAPGPLALP
Take B2: the binding entry in [1] is “binds”; in assay [2], “no binding”; in assay [3], “binds”; in assay [4], “binds”; in assay [5], “binds”; in assay [6], “binds”. Further, the binding result in [7] is reported as “binds”; in assay [8], “binds”; in [9], “binds”; in assay [10] it was “binds”; in assay [11], “no binding”; in assay [12], “binds”. In assay [13], the binding entry was “binds”.
